Drawing on paper PMC4245550, “Exploring the Chemodiversity and Biological Activities of the Secondary Metabolites from the Marine Fungus Neosartorya pseudofischeri” (Marine Drugs, 2014), this text covers IC50 for three compounds.

Structures are written as SMILES.

In the experiment the test system is RKO (a poorly differentiated colon carcinoma cell line). The experiment can be described thus: Cytotoxicity, MTS assay. The note with it: Homo sapiens, 72 h.
`O=c1[nH]cc(F)c(=O)[nH]1` [5-Fluorouracil, reference compound]: the IC50 (usually the concentration that inhibits the measured activity by half) worked out at 45.9 ± 4.58 µM.
Then `CN1C(=O)C(=O)n2c(cc3ccccc32)C1=O` [Compound 5, 1,2,3,4-tetrahydro-2-methyl-1,3,4-trioxopyrazino[1,2-a]indole], with greater than 50 µM; and `CSC1(CO)NC(=O)C(Cc2ccccc2)(SC)NC1=O` (stereo not drawn) [Compound 13, bis-N-norgliovictin], with greater than 50 µM.
